Experimental data published in the supplement of paper PMC8821664.
Structures can show the parent of a compound that is named as a salt. The list shows a part of the results. Repeats are few or missing, and single values can be far off.

These molecules were tested on Beas-2B AQP5-HiBiT reporter cells (assay: AQP5-HiBiT luminescence relative to vehicle (ratio to vehicle); higher = higher AQP5-HiBiT protein abundance). Details: 10 µM; 18 h.
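Note: monoclonal Beas-2B line stably carrying CMV promoter-driven AQP5-HiBiT, 5,000 cells per well in 384-well plates, lytic HiBiT plus LgBiT NanoLuc luminescence, FDA-approved drug library screen.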

| SMILES | AQP5-HiBiT luminescence |
| --- | --- |
| O=P1(N(CCCl)CCCl)NCCCO1 (centres undefined) [Cyclophosphamide monohydrate] | 0.653 |
| CN1[C@@H]2C[C@@H](OC(=O)[C@H](CO)c3ccccc3)C[C@H]1[C@@H]1O[C@@H]12 [Scopolamine HBr] | 0.949 |
| CN1C(=O)CCS(=O)(=O)C1c1ccc(Cl)cc1 (centres undefined) [Chlormezanone] | 1 |
| NCC(CC(=O)O)c1ccc(Cl)cc1 (centres undefined) [Baclofen] | 0.83 |
| CCC1(c2ccc(N)cc2)CCC(=O)NC1=O (centres undefined) [Aminoglutethimide] | 0.917 |
| [O-][n+]1ccccc1[S-].[O-][n+]1ccccc1[S-].[Zn+2] [Zinc pyrithione] | 52.4 |
| CC1(C)C(C=C(Cl)Cl)C1C(=O)OCc1cccc(Oc2ccccc2)c1 (centres undefined) [Permethrin] | 1.01 |
| Cc1cccc([C@H](C)c2c[nH]cn2)c1C [Dexmedetomidine] | 0.579 |
| CN(C)C(=O)Oc1cccc([N+](C)(C)C)c1 [Neostigmine bromide] | 1.18 |
| Cn1c(CCCC(=O)O)nc2cc(N(CCCl)CCCl)ccc21 [Bendamustine hydrochloride] | 1.02 |
| O=C(O[C@H]1C[N+]2(CCCOc3ccccc3)CCC1CC2)C(O)(c1cccs1)c1cccs1 [Aclidinium bromide] | 1.38 |
| CN1[C@@H]2CC[C@H]1C[C@@H](OC(=O)C(CO)c1ccccc1)C2 (some centres undefined) [Atropine sulfate] | 0.888 |
| C[C@]12CC[C@H]3[C@@H](CCC4=CC(=O)CC[C@@H]43)[C@@H]1CC[C@@H]2O [Nandrolone] | 0.849 |
| C[C@@H]1[C@H](O)[C@@H](C)/C=C/C=C/CC/C=C/C=C/C=C/C=C/[C@H](O[C@H]2O[C@@H](C)[C@H](O)[C@@H](N)[C@H]2O)C[C@@H]2O[C@](O)(C[C@@H](O)[C@H](O)CC[C@@H](O)C[C@@H](O)C[C@@H](O)CC(=O)O[C@H]1C)C[C@H](O)[C@H]2C(=O)O [Nystatin (Fungicidin)] | 0.845 |
